# Laboratory results reported in paper PMC4336329 (PLoS ONE, 2015).
# The whole screen tested about 310,000 compounds, of which about 2,200 (0.71%) showed an effect of 50% or more. The effect is printed as a negative number. Some of the results follow.
# Molecular target: human ether-à-go-go-related gene (hERG) potassium channel (human, UniProt Q12809)
# Test: primary screen, population patch clamp on CHO cells stably expressing hERG
# Sequence of human ether-à-go-go-related gene (hERG) potassium channel (Q12809 whole entry, looked up): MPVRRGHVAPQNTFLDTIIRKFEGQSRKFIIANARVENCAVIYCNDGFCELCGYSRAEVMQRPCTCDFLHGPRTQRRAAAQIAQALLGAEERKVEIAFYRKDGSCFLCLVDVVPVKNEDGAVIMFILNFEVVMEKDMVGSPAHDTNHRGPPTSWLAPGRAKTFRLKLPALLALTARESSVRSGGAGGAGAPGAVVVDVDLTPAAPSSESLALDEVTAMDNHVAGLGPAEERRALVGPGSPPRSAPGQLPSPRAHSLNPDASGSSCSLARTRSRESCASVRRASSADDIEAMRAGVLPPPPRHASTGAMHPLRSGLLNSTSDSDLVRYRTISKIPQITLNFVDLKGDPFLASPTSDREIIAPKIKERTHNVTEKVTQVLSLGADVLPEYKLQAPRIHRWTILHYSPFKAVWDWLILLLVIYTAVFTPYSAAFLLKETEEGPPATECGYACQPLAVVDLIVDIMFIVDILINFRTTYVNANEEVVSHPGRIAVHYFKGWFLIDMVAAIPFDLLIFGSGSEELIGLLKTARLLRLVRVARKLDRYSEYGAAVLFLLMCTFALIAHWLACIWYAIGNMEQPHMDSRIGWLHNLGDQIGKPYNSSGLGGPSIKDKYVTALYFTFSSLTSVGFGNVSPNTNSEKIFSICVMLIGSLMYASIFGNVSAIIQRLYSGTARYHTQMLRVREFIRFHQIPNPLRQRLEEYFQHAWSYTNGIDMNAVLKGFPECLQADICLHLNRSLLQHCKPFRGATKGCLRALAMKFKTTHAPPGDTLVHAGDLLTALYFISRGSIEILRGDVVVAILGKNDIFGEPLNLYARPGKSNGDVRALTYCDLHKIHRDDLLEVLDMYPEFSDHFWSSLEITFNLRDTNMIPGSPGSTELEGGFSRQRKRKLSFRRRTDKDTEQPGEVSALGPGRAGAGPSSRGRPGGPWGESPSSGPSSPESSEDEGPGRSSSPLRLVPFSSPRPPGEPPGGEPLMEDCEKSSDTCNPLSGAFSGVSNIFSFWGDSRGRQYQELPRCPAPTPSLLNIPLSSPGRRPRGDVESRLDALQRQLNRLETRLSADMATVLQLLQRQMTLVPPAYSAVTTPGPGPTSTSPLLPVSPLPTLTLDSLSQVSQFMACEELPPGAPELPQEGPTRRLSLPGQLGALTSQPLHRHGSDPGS
row,SMILES,"hERG current change (%, negative = inhibition) at 1uM [%]"
1,Nc1nc(-c2ccc(Cl)cc2)nn1C(=O)c1ccco1,15.6
2,O=C(Nc1cccc(Cl)c1N1CCOCC1)c1ccco1,4.55
3,CC(C)Cc1nc2sc3c(=O)[nH]cnc3c2c2c1CCCC2,5.52
4,N#Cc1c(-c2ccccc2)nc(SCC(=O)NC2CCCCC2)[nH]c1=O,5.58
5,Cc1ccc(S(=O)(=O)N2CCOCC2)cc1C(=O)N1CCCC1,10.8
6,O=C(Nc1ccc(C(=O)N2CCOCC2)cc1)Nc1cccc(C(F)(F)F)c1,7.27
7,COC(=O)c1ccsc1NC(=O)CN1CCN(Cc2ccc3c(c2)OCO3)CC1,-59.7
8,CC(=O)N1CCOc2ccc(S(=O)(=O)NCc3ccc(F)cc3)cc21,-2.95
9,CC1(C)CC(=S)Nc2ccccc2S1,-1.98
10,COc1ccc(N(C(=O)c2ccco2)C(C(=O)NC2CCCC2)c2ccncc2)cc1 (stereo not drawn),7.97
11,O=C(C1CCCCC1)N1CCC(c2nc3ccccc3[nH]2)CC1,1.06
12,O=C(O)CCC(=O)Nc1ccccc1Oc1ccccc1,9.48
13,CC1CCCN(c2nc3ccccc3nc2C(C#N)S(=O)(=O)c2ccccc2)C1 (stereo not drawn),7.74
14,CCCSc1nnc(C(C)C)n1N,4.59
15,O=C(C1CCCO1)N1CCC(O)(c2ccccc2)CC1 (stereo not drawn),20.8
16,COc1ccc(CNC(=O)CCCn2nc(C)c3c(C)n(-c4ccc(C)cc4)nc3c2=O)cc1,6.87
17,O=C(O)c1cc(S(=O)(=O)Nc2ccc3cn[nH]c3c2)ccc1Br,8.13
18,CCCOc1ccccc1NC(=O)c1ccc([N+](=O)[O-])cc1,7.8
19,CCCOC(=O)c1ccc(N2C(=O)c3ccccc3C2=O)cc1,13.5
20,C=CCN(C(=O)c1csnn1)C(C(=O)NCc1ccc(F)cc1)c1cccs1 (stereo not drawn),9.61
21,C=C(C)CC(Nc1ccc(OC)cc1)c1ccco1 (stereo not drawn),15.5
22,Cl.O=C1CN2Cc3c(ccc(Cl)c3Cl)N=C2N1,0.492
23,C=CCOC(=O)C1=C(C)NC(=S)NC1/C=C/c1ccccc1 (stereo not drawn),3.17

row,SMILES,"hERG current change (%, negative = inhibition) at 1uM [%]"
1,CCOc1cccc(C(=O)Nc2cccc(C(=O)NC(C)(C)C)c2)c1,1.03
2,CC(C(=O)O)n1c(C(F)(F)F)nc2ccccc21 (stereo not drawn),2.07
3,Cc1ccc2c(C)c(C(=O)N(C)Cc3ccncn3)oc2c1C,18.9
4,C=CCc1cc(OC)ccc1OCCOCCN1CCc2ccccc2C1.O=C(O)C(=O)O,3.59
5,CCN(CC)CCNS(=O)(=O)c1ccc(OC)c(Br)c1,3.81
6,Cc1cccc(NC(=O)c2cc(Cl)nc3ccccc23)c1,9.39
7,O=C(O)Cc1c(C(=O)O)nnn1-c1ccc(Cl)cc1Cl,7.31
8,Cl.OC(CCCCN1CCCCC1)c1ccccc1 (stereo not drawn),5.51
9,O=C(CNC(=O)C1CCCCC1)Nc1cc(Cl)ccc1Cl,1.54
10,O=C(O)C[C@H]1c2cc(C(F)(F)F)ccc2S(=O)(=O)N1C1CCCC1,17.1
11,CC(=O)c1cc2c(cc1NC(=O)CCC1CCCC1)OCO2,9.55
12,O=S(CC1CC1(Cl)Cl)CC1CC1(Cl)Cl (stereo not drawn),3.59
13,O=C(CNC(=O)c1nc[nH]c1C(=O)NCC(=O)OCc1ccccc1)OCc1ccccc1,10.3
14,CN1c2ccc(Cl)cc2C(=O)NC1c1ccc([N+](=O)[O-])s1 (stereo not drawn),-5.04
15,CCCN(CCC)C(=O)Cn1c(=O)n(CCCCCC(=O)Nc2ccccc2)c(=O)c2sccc21,-0.0623
16,Cc1nc(-c2ccc(Cl)cc2)sc1C1(C)CC(c2ccc(Cl)cc2)=NO1 (stereo not drawn),20.3
17,CCOC(=O)CNC(=O)CSc1nnnn1-c1cc(C)ccc1C,14.2
18,Cc1cc(/C=C2\SC(=S)N(Cc3ccco3)C2=O)c(C)n1-c1ccccc1,11
19,CC(=O)OC1CC(C)(C)N(OC(=O)CCCN2C(=O)c3ccccc3C2=O)C(C)(C)C1,1.29
20,CC(C)(C)OC(=O)N1CCCN(C(=O)Nc2cccc(Cl)c2)CC1,4.94
21,Cc1ccc2c(c1)N(CC(=O)N1CCCc3ccccc31)C(=O)C(C)O2 (stereo not drawn),-4.43
22,CC(=O)Nc1nc(-c2cccs2)cs1,5.44
23,O=C(c1ccc(NC(=S)NCc2ccco2)cc1)N1CCOCC1,3.41

row,SMILES,"hERG current change (%, negative = inhibition) at 1uM [%]"
1,Cc1c(Cl)cccc1N(CC(=O)NC1CCCCC1)S(C)(=O)=O,15.2
2,Cc1ccccc1C(=O)Nc1ccnn1C1CCN(C(=O)c2ccoc2)CC1,18.3
3,O=C(CCCn1c(=O)c2sccc2n(Cc2ccc(F)cc2)c1=O)NCc1ccco1,-0.82
4,CCN(CC)CCN1C(=O)C(=O)/C(=C(/O)c2c(C)[nH]c(C(=O)OC)c2C)C1c1cccnc1 (stereo not drawn),13.6
5,Cn1c(=O)n(C)c2cc3[nH]cnc3cc21,3.46
6,COc1ccc(NC(=O)CSc2nncn2C)cc1OC,4.77
7,COC(=O)CCC(=O)Nc1cccc2ccccc12,12.5
8,CC1(C)CC(=O)C(CCCN2C(=O)c3ccccc3C2=O)C(=O)C1,-15.2
9,CCC1=Nc2cc(C(=O)N3CCCCC3)ccc2Sc2ccc(C)cc21,11.8
10,Cc1ccc(Cc2c(C)nc3nc(SCC(=O)NCCN4CCOCC4)nn3c2C)cc1,-0.464
11,Cc1ccc(CN2CC(C(=O)NCCCSc3ccccc3)CC2=O)cc1 (stereo not drawn),13.3
12,C/C(=N\NC(=O)c1nnn(-c2nonc2N)c1-c1ccccc1)c1cccnc1,14.1
13,COc1ccc(N2C(=O)c3ccc(C(=O)Nc4cc(OC)ccc4OC)cc3C2=O)cc1,16.6
14,Cc1ccc(OCC(O)CNC2CCCC2)cc1C.Cl (stereo not drawn),8.86
15,CC1CN(C/C(=N\O)C23CC4CC(CC(C4)C2)C3)CC(C)O1 (stereo not drawn),12.3
16,O=C(O)CCCC(=O)N1CCN(c2nc(-c3ccccc3)c3ccccc3n2)CC1,7.45
17,O=C(O)c1ccccc1CSc1nnc2c(n1)[nH]c1ccccc12,11.4
18,O=C(CSc1nc2scc(-c3ccccc3)c2c(=O)[nH]1)NCCc1ccccc1,10.2
19,CCN(CC(=O)Nc1ccc([N+](=O)[O-])cc1OC)CC(=O)NC(C)(C)C,2.84
20,CC1=Nc2ncnn2C(c2ccccc2)/C1=N\O (stereo not drawn),3.7
21,CN1C(=S)N(c2ccccc2)C(=O)/C1=C/c1cccs1,-1.17
22,Cc1cc(Cl)ccc1OCC(=O)N1CCN(C)CC1,7.84
23,CCCC[n+]1ccn(C2=C([O-])c3ccccc3C(=O)/C2=N\S(=O)(=O)c2ccccc2)c1,10.2

row,SMILES,"hERG current change (%, negative = inhibition) at 1uM [%]"
1,Cc1cccc(-n2cnc3cc(C(=O)N4CCc5ccccc54)ccc32)c1,-6.54
2,O=C(O)C(=O)O.O=C(c1cccc(F)c1)N1CCC(N2CCCCCC2)CC1,-11.6
3,COc1ccc(S(=O)(=O)N2CCN(C(=O)c3cc(-c4ccc(Br)cc4)n[nH]3)CC2)cc1OC,-3.86
4,COc1ccc(/C(N)=N/OC(=O)c2ccc(OC)c([N+](=O)[O-])c2)cc1OC,-22
5,CC(C)N1CN=C(Nc2nc3ccccc3o2)NC1,26.5
6,COc1cc(/C=N/NC(=O)Cc2c[nH]c3ccccc23)cc(OC)c1OC,-0.919
7,O=C(COc1ccc(-c2nnco2)cc1)Nc1ccc(C(F)(F)F)cc1,24.1
8,Cc1ccccc1C(=O)NC(C(=O)Nc1nc2c(s1)CCCC2)C(C)C (stereo not drawn),3.13
9,CC(C)(C)c1nc(CN2CCCCC2)cc(CN2CCCCC2)c1O,4.44
10,COc1ccc(/C=C/C(=O)Nc2nc(C)cc(C)n2)cc1OC,13.4
11,CC1CN(S(=O)(=O)c2cccc(C(=O)N(CCc3ccccc3)Cc3ccccc3)c2)CC(C)O1 (stereo not drawn),3.87
12,CCOC(=O)C1CCCN(C(=O)c2cccc([N+](=O)[O-])c2C)C1 (stereo not drawn),4.21
13,CC(C)(C)c1ccc(OCCCC(=O)NNC(=O)c2ccccc2O)cc1,15.6
14,CCOC(=O)c1ccc(CNC(=O)CSc2nnnn2-c2ccc(Cl)cc2)o1,0.329
15,COC(=O)C(C(C)=O)C1=C/C(=N\S(=O)(=O)c2ccc(C)cc2)c2ccccc2C1=O (stereo not drawn),2.22
16,N#Cc1nc(-c2ccc(Cl)cc2)oc1NCc1cccc2c1OCO2,16
17,O=C(/C=C/c1ccc(Cl)cc1Cl)c1cccnc1,9.99
18,O=C(NCCCN1CCc2ccccc2C1)Nc1ccc(Cl)cc1,-44.5
19,COc1ccc(N(CC(=O)NC2CCCC2)C(=O)Cn2nnc(-c3ccc(F)cc3)n2)cc1OC,14.2
20,N/C(COc1cc(Cl)cc(Cl)c1)=N\O,8.18
21,O=C(Nc1ccccn1)c1ccc(Cl)c(S(=O)(=O)N2CCOCC2)c1,7.92
